Data: PubChem BioAssay AID504706 (National Center for Advancing Translational Sciences (NCATS), 2011)
Among all 320,000 compounds or so, about 200 (0.062%) were called active. The inconclusive results got no clear call from the source; some entries with a clear call stand among them for comparison. The call rests on the fitted dose curve; in most records, active means well fitted activation curve with a large enough effect; inconclusive means small, poorly fitted or top-dose-only effect; inactive means no such curve, though single readings can be large or run the other way. No potency is given beside an inconclusive call; the fits are too rough.

Assay: qHTS assay for re-activators of p53 using a Luc reporter; further: nearly all actives have a fitted effect of over 45% in size
Details: H1299 p53-A138V BP100-luciferase reporter, luminescence, 24 h; series mostly up to 92.2 µM
Method in brief: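 H1299 (p53-null), stable ts p53-A138V + BP100-Luc; 1000 cells/well, Opti-MEM/10% FBS; cpd 4 pt, 1:5; 24 h, 37 deg C, 5% CO2; detection reagent 10 min RT; luminescence.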
Potency means the concentration at half of the fitted maximal effect; tags describe the fitted curve by direction and shape.

**Q.** For `Brc1ccccc1-c1nnc(SCc2nc3ccccc3s2)o1`, which Potency is on record?
**A.** inconclusive [activator, full curve]

**Q.** With `CCCCCc1nnc(NC(=O)Cc2cccs2)s1` as the compound, how does the Potency read?
**A.** inactive

**Q.** With `Cc1cc(C(=O)Nc2sc3c(c2C#N)CCCC3)no1` as the compound, how does the Potency read?
**A.** inconclusive [activator, partial curve, poor fit]

**Q.** For `Cc1ccc(C)c(OCc2cc(C(=O)N(C)Cc3ccccn3)no2)c1`, which Potency is on record?
**A.** inconclusive [activator, partial curve, poor fit]

**Q.** With `OCCN1CCN(Cc2cc(Cl)c3cccnc3c2O)CC1` as the compound, how does the Potency read?
**A.** inconclusive [activator, full curve, poor fit]

**Q.** For `Cc1ccc(-c2cc(C(F)F)nc(NCC3CCCO3)n2)cc1` (centres undefined), which Potency is on record?
**A.** inconclusive [activator, single point]

**Q.** With `COc1ccc(NC(=O)CN(C)C(=O)c2cccc(S(=O)(=O)Nc3ccc(F)cc3)c2)cc1` as the compound, how does the Potency read?
**A.** inconclusive [activator, single point]

**Q.** Which Potency does the source give for `Cc1ccc2nc(-c3ccccc3)oc(=O)c2c1` here?
**A.** inconclusive [activator, single point]

**Q.** For `CCN(CC(=O)NCc1ccc(Cl)cc1)C(=O)c1ccc(C#N)cc1`, which Potency is on record?
**A.** inactive

**Q.** With `O=C(/C=C/c1ccco1)OCC(=O)N1CCCCC1` as the compound, how does the Potency read?
**A.** inconclusive [activator, partial curve, poor fit]

**Q.** With `O=C(Nc1ccn(Cc2ccccc2F)n1)c1ccc(COc2cccc(Br)c2)cc1` as the compound, how does the Potency read?
**A.** inconclusive [activator, partial curve, poor fit]

**Q.** With `CCCCCc1nnc(NC(=O)C2CCCO2)s1` (centres undefined) as the compound, how does the Potency read?
**A.** inconclusive [activator, partial curve, poor fit]

**Q.** For `Cc1cccc(CNC(=O)c2ccccc2N)c1`, which Potency is on record?
**A.** inconclusive [activator, full curve, poor fit]

**Q.** For `COc1ccc(-c2nc3ccccc3s2)cc1NC(C)=O`, which Potency is on record?
**A.** inconclusive [activator, single point]

**Q.** For `COn1c(=O)c(=O)n(O)c2ccccc21`, which Potency is on record?
**A.** inactive

**Q.** Which Potency does the source give for `COc1ccc(/C=N/OC(=O)Nc2ccccc2)cc1[N+](=O)[O-]` here?
**A.** inconclusive [activator, single point]

**Q.** For `COc1ccc(S(=O)(=O)Nc2c(C)n(C)n(-c3ccccc3)c2=O)cc1C(=O)O`, which Potency is on record?
**A.** inconclusive [activator, single point]

**Q.** With `CSc1ccc(/C=C/C(=O)Nc2ccccc2)cc1` as the compound, how does the Potency read?
**A.** inconclusive [activator, full curve, poor fit]

**Q.** For `Cc1cc(SCC(=O)c2ccccc2)nc(=O)[nH]1`, which Potency is on record?
**A.** inconclusive [activator, full curve, poor fit]

**Q.** With `Cc1ccccc1Nc1nnc(SCC2CCCCO2)s1` (centres undefined) as the compound, how does the Potency read?
**A.** inconclusive [activator, full curve, poor fit]

**Q.** Which Potency does the source give for `COc1ccc(Nc2nc(-c3ccccc3F)nc3ccccc23)cc1OC` here?
**A.** inactive

**Q.** With `COc1ccc2c(c1)CCc1c(C(=O)NCc3ccco3)noc1-2` as the compound, how does the Potency read?
**A.** inconclusive [activator, full curve, poor fit]

**Q.** For `c1cc(C2CCN(Cc3nc(-c4ccc5c(c4)OCO5)no3)CC2)ccn1`, which Potency is on record?
**A.** inactive

**Q.** Which Potency does the source give for `O=C(O)c1cccc(Cn2cccn2)c1` here?
**A.** inconclusive [activator, partial curve, poor fit]

**Q.** With `COc1ccc(-c2cc(=O)c3cc(OC)ccc3[nH]2)cc1` as the compound, how does the Potency read?
**A.** inconclusive [activator, partial curve, poor fit]

**Q.** With `COc1ccccc1NS(=O)(=O)c1cc(NC(=O)c2ccc(Cl)nc2)ccc1Cl` as the compound, how does the Potency read?
**A.** inactive

**Q.** For `CCCN(CCC)c1ncnc2c1cnn2-c1ccc(OC)cc1`, which Potency is on record?
**A.** inconclusive [activator, full curve, poor fit]

**Q.** For `O=C(O)c1ccc(CP(=O)(c2ccccc2)c2ccccc2)cc1`, which Potency is on record?
**A.** inconclusive [activator, single point]

**Q.** With `CC1CC(C)(C)NC(=S)N1CCCC(=O)Nc1ccccc1F` (centres undefined) as the compound, how does the Potency read?
**A.** inactive

**Q.** For `O=C(CCc1ccccc1)NNC(=O)c1ccccn1`, which Potency is on record?
**A.** inconclusive [activator, single point]

**Q.** For `COc1cc(/C=N/NC(=O)C(=O)Nc2ccccn2)ccc1O`, which Potency is on record?
**A.** inconclusive [activator, single point]

**Q.** For `C/C(Cn1nnc([N+](=O)[O-])n1)=N\NC(=O)c1cccc(Cl)c1`, which Potency is on record?
**A.** inconclusive [activator, single point]

**Q.** Which Potency does the source give for `O=C(Nc1nc2ccc(Br)cc2s1)c1ccco1` here?
**A.** inconclusive [activator, partial curve, poor fit]

**Q.** Which Potency does the source give for `O=C(NCCc1ccccc1)c1n[nH]c2ccccc12` here?
**A.** inconclusive [activator, single point]

**Q.** Which Potency does the source give for `N=C1CCCN1CC(=O)c1ccc(Cl)cc1` here?
**A.** inconclusive [activator, partial curve, poor fit]

**Q.** For `O=C(CCl)Oc1ccc2occ(C(=O)c3cccs3)c2c1`, which Potency is on record?
**A.** inconclusive [activator, partial curve, poor fit]

**Q.** Which Potency does the source give for `CC(C)NC(=O)c1cc(-c2cccs2)on1` here?
**A.** inconclusive [activator, partial curve, poor fit]

**Q.** With `C/C(=N\NC(=O)C1CC1)c1ccc(Cl)c(Cl)c1` as the compound, how does the Potency read?
**A.** inactive

**Q.** Which Potency does the source give for `CC(C)c1nc2ccc(NC(=O)C34CC5CC(CC(C5)C3)C4)cc2[nH]1` here?
**A.** inactive

**Q.** With `N/C(=N\OC(=O)c1ccc2ccccc2c1)c1cccc([N+](=O)[O-])c1` as the compound, how does the Potency read?
**A.** inconclusive [activator, partial curve, poor fit]

**Q.** For `CCCCn1c(NC(=O)CC)c(C#N)c2nc3ccccc3nc21`, which Potency is on record?
**A.** inactive

**Q.** With `O=C(O)/C=C/C(=O)N(CC1CCCO1)C1CC(=O)N(c2c(Cl)cccc2Cl)C1=O` (centres undefined) as the compound, how does the Potency read?
**A.** inactive

**Q.** With `CCN(CC(=O)NCc1ccc(Cl)cc1)C(=O)Cc1ccccc1[N+](=O)[O-]` as the compound, how does the Potency read?
**A.** inconclusive [activator, single point]

**Q.** Which Potency does the source give for `CCOc1cccc(/C=N/NC(=O)c2cc(-c3cccn3C)n[nH]2)c1O` here?
**A.** inconclusive [activator, partial curve, poor fit]
